Laboratory results taken from US20240083996A1, “COMPOSITION FOR PROPHYLAXIS OR TREATMENT OF IL-8 RELATED DISEASES” (Chugai Seiyaku Kabushiki Kaisha, priority 2016, published 2024).

Legend:
[1] = system: Extracellular matrix (BD Matrigel Basement Membrane Matrix); test: Amount of antibody binding to the extracellular matrix by the ECL method; details: antibody 3 μg/mL, pH 7.4 (FIG. 23)
Procedure: Extracellular matrix (the BD Matrigel Basement Membrane Matrix/manufactured by BD) was diluted to 2 mg/mL using TBS (Takara, T903). The diluted extracellular matrix was dispensed into the MULTI-ARRAY 96 well Plate, High bind, Bare (manufactured by Meso Scale Discovery: MSD) at 5 μL per well, and immobilized overnight at 4° C. Then, blocking was performed using 20 mM ACES buffer (pH 7.4) containing 150 mM NaCl, 0.05% Tween20, 0.5% BSA, and 0.01% NaN3.
The antibodies to be evaluated were prepared as follows. The antibody samples to be added alone were prepared by diluting each antibody to 9 μg/mL using Buffer-1 shown below, and then further diluting them using Buffer-2 to a final concentration of 3 μg/mL. Buffer-1: 20 mM ACES buffer containing 150 mM NaCl, 0.05% Tween20, and 0.01% NaN3, at pH 7.4 Buffer-2: 20 mM ACES buffer containing 150 mM NaCl, 0.05% Tween20, 0.1% BSA, and 0.01% NaN3, at pH 7.4 […]
Next, solutions of the antibody alone or the complex were added to the plate from which the blocking solution had been removed, and this was shaken at room temperature for one hour. […] The antibody for ECL detection was removed, a solution produced by 2-fold dilution of the MSD Read Buffer T (4×) (manufactured by MSD) using ultrapure water was added, and then the amount of luminescence was measured by SECTOR Imager 2400 (manufactured by MSD).

[2] = molecular target: human IL-8 (Homo sapiens, UniProt P10145); test: Mouse PK assay: human IL-8 elimination after simultaneous administration of human IL-8 and anti-human IL-8 antibody; type: in vivo, mice (C57BL/6J); details: mice, antibody 2 mg/kg with human IL-8
Procedure: After simultaneous administration of human IL-8 and anti-human IL-8 antibodies to mice (C57BL/6J, Charles river), pharmacokinetics of human IL-8 were evaluated. A mixed solution of human IL-8 and an anti-human IL-8 antibody (10 μg/mL and 200 μg/mL, respectively) was administered in a single dose at 10 mL/kg to the tail vein. […] Blood was collected five minutes, two hours, four hours, seven hours, one day, two days, three days, seven days, 14 days, 21 days, and 28 days after the administration. The collected blood was immediately centrifuged at 15,000 rpm and 4° C. for 15 minutes to obtain plasma. The separated plasma was stored in a freezer set at −20° C. or below until measurements were taken.
The human IL-8 concentration in mouse plasma was determined by an electrochemiluminescence method. First, an anti-human IL-8 antibody (prepared in-house) having a mouse IgG constant region was dispensed into a MULTI-ARRAY 96-well Plate (Meso Scale Discovery), and was allowed to stand at room temperature for one hour. Then, a PBS-Tween solution containing 5% BSA (w/v) was used for blocking at room temperature for two hours to prepare an anti-human IL-8 antibody-immobilized plate. […] The human IL-8 concentration was calculated based on the response in the calibration curve using the analytical software, SOFT Max PRO (Molecular Devices). […]

Chain of human IL-8 (P10145 23-99 limits assumed): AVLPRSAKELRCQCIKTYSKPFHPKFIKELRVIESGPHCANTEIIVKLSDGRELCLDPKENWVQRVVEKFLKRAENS

B1: H1009/L395: pH-dependent IL-8-binding antibody, H1009-IgG1m (SEQ ID NO:48) heavy chain, L395-kOMT light chain (antibody)
heavy: QVQLVESGGGLVQPGGSLRLSCAASGFTFSDYYLSWVRQAPGKGLEWVGLIRNKDNYHTPEYSASVKGRFTISRDDSKNSLYLTMSDLKTEDTAVYYCARENHRYDVELAYWGQGTLVTVSS[human IgG1 constant region skipped]
light: DIQMTQSPSSLSASVGDRVTITCRASEIIYSYLAWYQQKPGKAPKLLIYKAKTHADGVPSRFSGSGSGTDFTFTISSLQPEDIATYYCKHHFGFPRTFGQGTKVEIKRTVAAPSVFIFPPSDEQLKSGTASVVCLLNNFYPREAKVQWKVDNALQSGNSQESVTEQDSKDSTYSLSSTLTLSKADYEKHKVYACEVTHQGLSSPVTKSFNRGEC
[1]; human IL-8 at ten times the molar concentration
  binding to the extracellular matrix, complex with human IL-8 (+hIL8): bound to the extracellular matrix upon complex formation with human IL-8
[1]
  binding to the extracellular matrix, antibody alone (−IL8): hardly showed any binding to the extracellular matrix as the antibody alone
[2]
  rate of human IL-8 elimination (CL) as compared to H998/L63: approximately 30 fold
